The results in this text go back to publication PMC12820563.

The other results are listed elsewhere or left out. The list includes weakly bound sequences.

The target in the assay is T1, MBP-FoxP3dN (UniProt Q99JB6).
T1 sequence: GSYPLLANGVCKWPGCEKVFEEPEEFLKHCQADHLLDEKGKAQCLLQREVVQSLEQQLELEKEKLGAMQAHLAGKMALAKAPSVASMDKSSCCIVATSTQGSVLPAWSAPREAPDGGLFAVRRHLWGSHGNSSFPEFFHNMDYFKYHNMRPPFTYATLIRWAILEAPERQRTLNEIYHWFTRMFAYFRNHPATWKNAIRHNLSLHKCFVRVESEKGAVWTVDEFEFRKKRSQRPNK
Nature of the assay: PD-seq (MBP pull-down with sequencing). The note with it: 20 mM Tris-HCl pH 7.5, 100 mM NaCl, 1.5 mM MgCl2, 0.4 uM protein, 0.1 uM dsDNA library, 30 min, room temperature, amylose pull-down; high values mean tight binding; double strand, one strand shown.
As to “GATGATTGTTCTCCCAGCTGATGAATTTGCCTCCTCGAGTAAACAAATTTTCCTAATCTTTCTGTTCAAGCGCCATCTAC”, the binding signal (RPM ratio (pull-down/input)) worked out at 2.37.
Under “GATGATTGTTCTCCCAGCTGATGAATTATTCACCTCGAGTAAACAAATTTTCCTAATCTTTCTGTTCAAGCGCCATCTAC” stands 0.347; under “GATGATTGTTCTCCCAGCTGATGAATTGTTCTCATCGAGTAAACAAATTTTCCTAATCTTTCTGTTCAAGCGCCATCTAC”, 0.452.
Under “GATGATTGTTCTCCCAGCTGATGAATTTGGGCGGTCGAGTAAACAAATTTTCCTAATCTTTCTGTTCAAGCGCCATCTAC” stands 0.417.
The same measure for “GATGATTGTTCTCCCAGCTGATGAATTCATATGTTCGAGTAAACAAATTTTCCTAATCTTTCTGTTCAAGCGCCATCTAC”: 1.38; for “GATGATTGTTCTCCCAGCTGATGAATTGGCACAATCGAGTAAACAAATTTTCCTAATCTTTCTGTTCAAGCGCCATCTAC”: 0.528.
Regarding “GATGATTGTTCTCCCAGCTGATGAATTACCCAGATCGAGTAAACAAATTTTCCTAATCTTTCTGTTCAAGCGCCATCTAC”, the binding signal (RPM ratio (pull-down/input)) is 0.196.
Regarding “GATGATTGTTCTCCCAGCTGATGAATTGTCCGGCTCGAGTAAACAAATTTTCCTAATCTTTCTGTTCAAGCGCCATCTAC”, the binding signal (RPM ratio (pull-down/input)) amounted to 0.245.
The same measure for “GATGATTGTTCTCCCAGCTGATGAATTTTAATCATCGAGTAAACAAATTTTCCTAATCTTTCTGTTCAAGCGCCATCTAC”: 0.522.
The same measure for “GATGATTGTTCTCCCAGCTGATGAATTCCCGGGATCGAGTAAACAAATTTTCCTAATCTTTCTGTTCAAGCGCCATCTAC”: 0.199.
Regarding “GATGATTGTTCTCCCAGCTGATGAATTACCGCTATCGAGTAAACAAATTTTCCTAATCTTTCTGTTCAAGCGCCATCTAC”, the binding signal (RPM ratio (pull-down/input)) is 0.79.
The same measure for “GATGATTGTTCTCCCAGCTGATGAATTCAAAACATCGAGTAAACAAATTTTCCTAATCTTTCTGTTCAAGCGCCATCTAC”: 1.67; for “GATGATTGTTCTCCCAGCTGATGAATTGACGCTTTCGAGTAAACAAATTTTCCTAATCTTTCTGTTCAAGCGCCATCTAC”: 1.25; for “GATGATTGTTCTCCCAGCTGATGAATTACCTGCGTCGAGTAAACAAATTTTCCTAATCTTTCTGTTCAAGCGCCATCTAC”: 0.555.
As for “GATGATTGTTCTCCCAGCTGATGAATTGCTATTATCGAGTAAACAAATTTTCCTAATCTTTCTGTTCAAGCGCCATCTAC”, the binding signal (RPM ratio (pull-down/input)) stood at 1.72.
The same measure for “GATGATTGTTCTCCCAGCTGATGAATTTGCGGGATCGAGTAAACAAATTTTCCTAATCTTTCTGTTCAAGCGCCATCTAC”: 0.544; for “GATGATTGTTCTCCCAGCTGATGAATTTCGGTTGTCGAGTAAACAAATTTTCCTAATCTTTCTGTTCAAGCGCCATCTAC”: 1.29; for “GATGATTGTTCTCCCAGCTGATGAATTACCGCATTCGAGTAAACAAATTTTCCTAATCTTTCTGTTCAAGCGCCATCTAC”: 5.89.
Under “GATGATTGTTCTCCCAGCTGATGAATTCATTGTTTCGAGTAAACAAATTTTCCTAATCTTTCTGTTCAAGCGCCATCTAC” stands 2.74.
The same measure for “GATGATTGTTCTCCCAGCTGATGAATTGATTTAATCGAGTAAACAAATTTTCCTAATCTTTCTGTTCAAGCGCCATCTAC”: 0.411; for “GATGATTGTTCTCCCAGCTGATGAATTTAGTAGCTCGAGTAAACAAATTTTCCTAATCTTTCTGTTCAAGCGCCATCTAC”: 1.21; for “GATGATTGTTCTCCCAGCTGATGAATTATGGGTGTCGAGTAAACAAATTTTCCTAATCTTTCTGTTCAAGCGCCATCTAC”: 0.931.
As for “GATGATTGTTCTCCCAGCTGATGAATTATCTAAATCGAGTAAACAAATTTTCCTAATCTTTCTGTTCAAGCGCCATCTAC”, the binding signal (RPM ratio (pull-down/input)) worked out at 0.288.
Consider “GATGATTGTTCTCCCAGCTGATGAATTGCGAGTTTCGAGTAAACAAATTTTCCTAATCTTTCTGTTCAAGCGCCATCTAC”, for which the binding signal (RPM ratio (pull-down/input)) was found to be 1.55.
The same measure for “GATGATTGTTCTCCCAGCTGATGAATTAATGTCTTCGAGTAAACAAATTTTCCTAATCTTTCTGTTCAAGCGCCATCTAC”: 0.875; for “GATGATTGTTCTCCCAGCTGATGAATTTATGGACTCGAGTAAACAAATTTTCCTAATCTTTCTGTTCAAGCGCCATCTAC”: 1.33; for “GATGATTGTTCTCCCAGCTGATGAATTATGGACCTCGAGTAAACAAATTTTCCTAATCTTTCTGTTCAAGCGCCATCTAC”: 0.362.
On to “GATGATTGTTCTCCCAGCTGATGAATTAAGGGTTTCGAGTAAACAAATTTTCCTAATCTTTCTGTTCAAGCGCCATCTAC”, for which the binding signal (RPM ratio (pull-down/input)) came out at 0.601.
For “GATGATTGTTCTCCCAGCTGATGAATTGTCACCGTCGAGTAAACAAATTTTCCTAATCTTTCTGTTCAAGCGCCATCTAC”, the binding signal (RPM ratio (pull-down/input)) came out at 0.44.
The same measure for “GATGATTGTTCTCCCAGCTGATGAATTCGGAAAGTCGAGTAAACAAATTTTCCTAATCTTTCTGTTCAAGCGCCATCTAC”: 0.224; for “GATGATTGTTCTCCCAGCTGATGAATTTGTATGCTCGAGTAAACAAATTTTCCTAATCTTTCTGTTCAAGCGCCATCTAC”: 6.51; for “GATGATTGTTCTCCCAGCTGATGAATTGTACTCATCGAGTAAACAAATTTTCCTAATCTTTCTGTTCAAGCGCCATCTAC”: 0.655.
With “GATGATTGTTCTCCCAGCTGATGAATTGCGGTTCTCGAGTAAACAAATTTTCCTAATCTTTCTGTTCAAGCGCCATCTAC”, the binding signal (RPM ratio (pull-down/input)) was 1.25.
Under “GATGATTGTTCTCCCAGCTGATGAATTCAGCAGCTCGAGTAAACAAATTTTCCTAATCTTTCTGTTCAAGCGCCATCTAC” stands 0.994; under “GATGATTGTTCTCCCAGCTGATGAATTACTAGTATCGAGTAAACAAATTTTCCTAATCTTTCTGTTCAAGCGCCATCTAC”, 0.613.
As for “GATGATTGTTCTCCCAGCTGATGAATTTAGCTTGTCGAGTAAACAAATTTTCCTAATCTTTCTGTTCAAGCGCCATCTAC”, the binding signal (RPM ratio (pull-down/input)) is 3.43.
With “GATGATTGTTCTCCCAGCTGATGAATTTTTGCAATCGAGTAAACAAATTTTCCTAATCTTTCTGTTCAAGCGCCATCTAC”, the binding signal (RPM ratio (pull-down/input)) came to 3.95.
The same measure for “GATGATTGTTCTCCCAGCTGATGAATTACTTCAGTCGAGTAAACAAATTTTCCTAATCTTTCTGTTCAAGCGCCATCTAC”: 0.207; for “GATGATTGTTCTCCCAGCTGATGAATTCTATACGTCGAGTAAACAAATTTTCCTAATCTTTCTGTTCAAGCGCCATCTAC”: 0.455; for “GATGATTGTTCTCCCAGCTGATGAATTTACTAGGTCGAGTAAACAAATTTTCCTAATCTTTCTGTTCAAGCGCCATCTAC”: 0.384.
